# The list shows a part of the results.
# B1: Gal 3 (Homo sapiens), P17931 (protein)
# chain: MADNFSLHDALSGSGNPNPQGWPGAWGNQPAGAGGYPGASYPGAYPGQAPPGAYPGQAPPGAYHGAPGAYPGAPAPGVYPGPPSGPGAYPSSGQPSAPGAYPATGPYGAPAGPLIVPYNLPLPGGVVPRMLITILGTVKPNANSILDFQRGNDVAFHFNPRFNENNRRVIVCNTKLDNNWGREERQSVFPFESGKPFKIQVLVEPDHFKVAVNDAHLLQYNHRVKKLNEISKLGISGDIDLTSASYTMI
# Assays:
# Assay in all cases: glycan array binding signal (z-score within array); higher = stronger binding
# Details in all cases: glycan notation: IUPAC condensed, linker removed; mutation: R144S
# [1] = target: Neu5Ac(a2-3)Gal6S(b1-4)[Fuc(a1-3)]GlcNAc
# How it was run: (§1)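 Glycan array data were curated from 3228 arrays in the Consortium for Functional Glycomics database and kept only where the protein sequence was available. Glycan names were converted to IUPAC-condensed notation, and columns mapping to the same glycan were averaged. The binding signal is a within-array Z-score, averaged across arrays of the same protein sequence at different concentrations or buffers and across linkers. Negative Z-scores can be read as non-binding.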
# Neu5Ac(a2-3)GalNAc = target: Neu5Ac(a2-3)GalNAc
# How it was run: as §1
# [2] = target: Neu5Ac(a2-3)GalNAc(b1-4)GlcNAc
# How it was run: as §1
# [3] = target: Neu5Ac(a2-3)[GalNAc(b1-4)]Gal(b1-4)Glc
# How it was run: as §1
# [4] = target: Neu5Ac(a2-3)[GalNAc(b1-4)]Gal(b1-4)GlcNAc
# How it was run: as §1
# [5] = target: Neu5Ac(a2-3)[GalNAc(b1-4)]Gal(b1-4)GlcNAc(b1-3)GalNAc
# How it was run: as §1
# [6] = target: Neu5Ac(a2-3)[Neu5Ac(a2-6)]GalNAc
# How it was run: as §1
# Neu5Ac(a2-6)Gal = target: Neu5Ac(a2-6)Gal
# How it was run: as §1
# Neu5Ac(a2-6)Gal(b1-4)Glc = target: Neu5Ac(a2-6)Gal(b1-4)Glc
# How it was run: as §1
# [7] = target: Neu5Ac(a2-6)Gal(b1-4)GlcNAc
# How it was run: as §1
# [8] = target: Neu5Ac(a2-6)Gal(b1-4)GlcNAc(b1-2)Man(a1-3)Man(b1-4)GlcNAc(b1-4)GlcNAc
# How it was run: as §1
# [9] = target: Neu5Ac(a2-6)Gal(b1-4)GlcNAc(b1-2)Man(a1-3)[Gal(b1-4)GlcNAc(b1-2)Man(a1-6)]Man(b1-4)GlcNAc(b1-4)GlcNAc
# How it was run: as §1
# [10] = target: Neu5Ac(a2-6)Gal(b1-4)GlcNAc(b1-2)Man(a1-3)[GlcNAc(b1-2)Man(a1-6)]Man(b1-4)GlcNAc(b1-4)GlcNAc
# How it was run: as §1
# [11] = target: Neu5Ac(a2-6)Gal(b1-4)GlcNAc(b1-2)Man(a1-3)[GlcNAc(b1-2)Man(b1-4)GlcNAc(b1-2)Man(a1-6)]Man(b1-4)GlcNAc(b1-4)GlcNAc
# How it was run: as §1
# [12] = target: Neu5Ac(a2-6)Gal(b1-4)GlcNAc(b1-2)Man(a1-3)[Man(a1-6)]Man(b1-4)GlcNAc(b1-4)GlcNAc
# How it was run: as §1
# [13] = target: Neu5Ac(a2-6)Gal(b1-4)GlcNAc(b1-2)Man(a1-3)[Neu5Ac(a2-6)Gal(b1-4)GlcNAc(b1-2)Man(a1-6)]Man(b1-4)GlcNAc(b1-4)GlcNAc
# How it was run: as §1
# [14] = target: Neu5Ac(a2-6)Gal(b1-4)GlcNAc(b1-2)Man(a1-6)Man(b1-4)GlcNAc(b1-4)GlcNAc
# How it was run: as §1
# [15] = target: Neu5Ac(a2-6)Gal(b1-4)GlcNAc(b1-2)Man(a1-6)[Gal(b1-4)GlcNAc(b1-2)Man(a1-3)]Man(b1-4)GlcNAc(b1-4)GlcNAc
# How it was run: as §1
# [16] = target: Neu5Ac(a2-6)Gal(b1-4)GlcNAc(b1-2)Man(a1-6)[GlcNAc(b1-2)Man(a1-3)]Man(b1-4)GlcNAc(b1-4)GlcNAc
# How it was run: as §1
# [17] = target: Neu5Ac(a2-6)Gal(b1-4)GlcNAc(b1-2)Man(a1-6)[Man(a1-3)]Man(b1-4)GlcNAc(b1-4)GlcNAc
# How it was run: as §1
# [18] = target: Neu5Ac(a2-6)Gal(b1-4)GlcNAc(b1-3)Gal(b1-3)GlcNAc
# How it was run: as §1
# [19] = target: Neu5Ac(a2-6)Gal(b1-4)GlcNAc(b1-3)Gal(b1-4)GlcNAc
# How it was run: as §1
# [20] = target: Neu5Ac(a2-6)Gal(b1-4)GlcNAc(b1-3)Gal(b1-4)GlcNAc(b1-3)Gal(b1-4)GlcNAc
# How it was run: as §1
# [21] = target: Neu5Ac(a2-6)Gal(b1-4)GlcNAc(b1-3)Gal(b1-4)[Fuc(a1-3)]GlcNAc(b1-3)Gal(b1-4)[Fuc(a1-3)]GlcNAc
# How it was run: as §1
# [22] = target: Neu5Ac(a2-6)Gal(b1-4)GlcNAc(b1-3)GalNAc
# How it was run: as §1
# [23] = target: Neu5Ac(a2-6)Gal(b1-4)GlcNAc6S
# How it was run: as §1
# Neu5Ac(a2-6)GalNAc = target: Neu5Ac(a2-6)GalNAc
# How it was run: as §1
# [24] = target: Neu5Ac(a2-6)GalNAc(b1-4)GlcNAc
# How it was run: as §1
# [25] = target: Neu5Ac(a2-6)GlcNAc(b1-4)GlcNAc
# How it was run: as §1
# [26] = target: Neu5Ac(a2-6)GlcNAc(b1-4)GlcNAc(b1-4)GlcNAc
# How it was run: as §1
# Neu5Ac(a2-8)Neu5Ac = target: Neu5Ac(a2-8)Neu5Ac
# How it was run: as §1
# [27] = target: Neu5Ac(a2-8)Neu5Ac(a2-3)Gal(b1-4)Glc
# How it was run: as §1
# [28] = target: Neu5Ac(a2-8)Neu5Ac(a2-3)[GalNAc(b1-4)]Gal(b1-4)Glc
# How it was run: as §1
# [29] = target: Neu5Ac(a2-8)Neu5Ac(a2-8)Neu5Ac
# How it was run: as §1
# [30] = target: Neu5Ac(a2-8)Neu5Ac(a2-8)Neu5Ac(a2-3)Gal(b1-4)Glc
# How it was run: as §1
# [31] = target: Neu5Ac(a2-8)Neu5Ac(a2-8)Neu5Ac(a2-3)[GalNAc(b1-4)]Gal(b1-4)Glc
# How it was run: as §1
# [32] = target: Neu5Ac(a2-8)Neu5Ac(a2-8)Neu5Ac(a2-8)Neu5Ac(a2-3)[GalNAc(b1-4)]Gal(b1-4)Glc
# How it was run: as §1
# [33] = target: Neu5Ac(b2-6)Gal(b1-4)GlcNAc
# How it was run: as §1
# Neu5Ac(b2-6)GalNAc = target: Neu5Ac(b2-6)GalNAc
# How it was run: as §1
# [34] = target: Neu5Ac9Ac(a2-3)Gal(b1-3)GlcNAc
# How it was run: as §1
# [35] = target: Neu5Ac9Ac(a2-3)Gal(b1-4)GlcNAc
# How it was run: as §1
# [36] = target: Neu5Ac9Ac(a2-6)Gal(b1-4)GlcNAc
# How it was run: as §1
# [37] = target: Neu5Gc(a2-3)Gal(b1-3)GlcNAc
# How it was run: as §1
# [38] = target: Neu5Gc(a2-3)Gal(b1-3)[Fuc(a1-4)]GlcNAc
# How it was run: as §1
# Neu5Gc(a2-3)Gal(b1-4)Glc = target: Neu5Gc(a2-3)Gal(b1-4)Glc
# How it was run: as §1
# [39] = target: Neu5Gc(a2-3)Gal(b1-4)GlcNAc
# How it was run: as §1
# [40] = target: Neu5Gc(a2-3)Gal(b1-4)[Fuc(a1-3)]GlcNAc
# How it was run: as §1
# [41] = target: Neu5Gc(a2-6)Gal(b1-4)GlcNAc
# How it was run: as §1
# Neu5Gc(a2-6)GalNAc = target: Neu5Gc(a2-6)GalNAc
# How it was run: as §1
# [42] = target: Neu5Gc(b2-6)Gal(b1-4)GlcNAc
# How it was run: as §1
binder,measurement,setting,value
B1,glycan array binding signal (z-score),[1],-0.362
same,glycan array binding signal (z-score),Neu5Ac(a2-3)GalNAc,-0.363
same,glycan array binding signal (z-score),[2],-0.363
same,glycan array binding signal (z-score),[3],-0.354
same,glycan array binding signal (z-score),[4],-0.362
same,glycan array binding signal (z-score),[5],-0.363
same,glycan array binding signal (z-score),[6],-0.361
same,glycan array binding signal (z-score),Neu5Ac(a2-6)Gal,-0.361
same,glycan array binding signal (z-score),Neu5Ac(a2-6)Gal(b1-4)Glc,-0.359
same,glycan array binding signal (z-score),[7],-0.364
same,glycan array binding signal (z-score),[8],-0.363
same,glycan array binding signal (z-score),[9],-0.061
same,glycan array binding signal (z-score),[10],-0.357
same,glycan array binding signal (z-score),[11],-0.364
same,glycan array binding signal (z-score),[12],-0.357
same,glycan array binding signal (z-score),[13],-0.309
same,glycan array binding signal (z-score),[14],-0.358
same,glycan array binding signal (z-score),[15],-0.34
same,glycan array binding signal (z-score),[16],-0.363
same,glycan array binding signal (z-score),[17],-0.339
same,glycan array binding signal (z-score),[18],-0.355
same,glycan array binding signal (z-score),[19],-0.355
same,glycan array binding signal (z-score),[20],0.657
same,glycan array binding signal (z-score),[21],-0.365
same,glycan array binding signal (z-score),[22],-0.359
same,glycan array binding signal (z-score),[23],-0.36
same,glycan array binding signal (z-score),Neu5Ac(a2-6)GalNAc,-0.364
same,glycan array binding signal (z-score),[24],-0.362
same,glycan array binding signal (z-score),[25],-0.364
same,glycan array binding signal (z-score),[26],-0.355
same,glycan array binding signal (z-score),Neu5Ac(a2-8)Neu5Ac,-0.357
same,glycan array binding signal (z-score),[27],-0.326
same,glycan array binding signal (z-score),[28],-0.363
same,glycan array binding signal (z-score),[29],-0.355
same,glycan array binding signal (z-score),[30],-0.344
same,glycan array binding signal (z-score),[31],-0.358
same,glycan array binding signal (z-score),[32],-0.278
same,glycan array binding signal (z-score),[33],-0.362
same,glycan array binding signal (z-score),Neu5Ac(b2-6)GalNAc,-0.363
same,glycan array binding signal (z-score),[34],-0.363
same,glycan array binding signal (z-score),[35],-0.365
same,glycan array binding signal (z-score),[36],-0.364
same,glycan array binding signal (z-score),[37],-0.363
same,glycan array binding signal (z-score),[38],-0.357
same,glycan array binding signal (z-score),Neu5Gc(a2-3)Gal(b1-4)Glc,-0.35
same,glycan array binding signal (z-score),[39],-0.358
same,glycan array binding signal (z-score),[40],-0.362
same,glycan array binding signal (z-score),[41],-0.362
same,glycan array binding signal (z-score),Neu5Gc(a2-6)GalNAc,-0.361
same,glycan array binding signal (z-score),[42],-0.358

# — the supplement of paper PMC8728848
